Like-named read-outs stand apart in the source and are kept apart here.
Experiments:
[1] = tested on: Pseudomonas aeruginosa biofilms
[2] = tested on: Mycobacterium abscessus complex (MABSC) biofilms; experiment: Activity against CF-isolate biofilms; settings: AMT0130-8
Text: AMT0130-8 represents a CF-isolate of the clinically relevant MABSC, which frequently complicates the treatment of CF pulmonary infections. […] .
AMT0089-5 is a macrolide-resistant, amikacin-resistant MABSC. The involvement of such antibiotic-resistant strains of MABSC in the pulmonary infections of CF patients is extremely problematic. […] .
ATCC-19977 is M. abscessus (macrolide-resistant; inducible).

Compound: CC(S)C(C)S.[Bi] (stereo not drawn) [BisBDT, bismuth-2,3-butanedithiol]
- Reductions in biofilm cell viability [1]: 2 logs
- Reductions in biofilm cell viability ([1]; MR14 (MDR CF isolate), 25 ng/mL): 2 logs
- Reductions in biofilm cell viability [2]: only very modest reductions
